The results in this text go back to a collection of fitness landscapes (doi:10.1126/science.1257360).

B1: PhoQ; a variant is named by its letters at X, in order, P23837 (parent)
chain: MKKLLRLFFPLSLRVRFLLATAAVVLVLSLAYGMVALIGYSVSFDKTTFRLLRGESNLFYTLAKWENNKLHVELPENIDKQSPTMTLIYDENGQLLWAQRDVPWLMKMIQPDWLKSNGFHEIEADVNDTSLLLSGDHSIQQQLQEVREDDDDAEMTHSVAVNVYPATSRMPKLTIVVVDTIPVELKSSYMVWSWFIYVLSANLLLVIPLLWVAAWWSLRPIEALAKEVRELEEHNRELLNPATTRELTSLVRNLNRLLKSERERYDKYRTTLTDLTHSLKTPLXXLQXXLRSLRSEKMSVSDAEPVMLEQISRISQQIGYYLHRASMRGGTLLSRELHPVAPLLDNLTSALNKVYQRKGVNISLDISPEISFVGEQNDFVEVMGNVLDNACKYCLEFVEISARQTDEHLYIVVEDDGPGIPLSKREVIFDRGQRVDTLRPGQGVGLAVAREITEQYEGKIVAGESMLGGARMEVIFGRQHSAPKDE

Some of the results follow.

The variants in the test derive from B1. Briefly: enrichment ratio after two sorts for PhoP signalling (ratio (wild type AVST 3.29)); higher = more functional. Particulars: with PhoP (E. coli).
With PWAR, the enrichment ratio was at most 0.25.
With ICFE, the enrichment ratio is at most 0.25.
Next, TGKW: at most 0.25; FRNY: at most 0.25; AKFI: at most 0.25.
Consider SLHV, for which the enrichment ratio was determined as 0.521.
Next, QDNG: at most 0.25; SVVY: at most 0.25; TTHC: 3.4.
Next, DTPY: at most 0.25; PGVQ: at most 0.25; LTPT: at most 0.25.
Next, EQSH: at most 0.25.
For the variant EDFR, the enrichment ratio is at most 0.25.
NNIS: the enrichment ratio was at most 0.25.
For NPMG, the enrichment ratio was at most 0.25.
As to TTKK, the enrichment ratio is at most 0.25.
Under AYVG stands at most 0.25; under TYWH, at most 0.25.
With QEEA, the enrichment ratio is at most 0.25.
As for NMFH, the enrichment ratio was at most 0.25.
Next, NFGH: at most 0.25; FRFL: at most 0.25.
Next, FQGT: at most 0.25; DQLP: at most 0.25; GQLN: 0.908.
Next, FYII: at most 0.25.
As to HFIR, the enrichment ratio was at most 0.25.
Under WHYT stands at most 0.25; under IDNN, at most 0.25; under PTRC, at most 0.25.
Under GSVT stands 0.744; under THVD, at most 0.25.
For LMTY, the enrichment ratio was at most 0.25.
Next, FHLT: at most 0.25; LDRD: at most 0.25; RFSK: at most 0.25.
Under SAEP stands at most 0.25; under MVKS, at most 0.25; under QMTQ, at most 0.25.
Under WESY stands at most 0.25.
With ANTL, the enrichment ratio came out at 12.9.
Next, RRAY: at most 0.25; GLHH: at most 0.25; SGPI: at most 0.25.
Under QYRY stands at most 0.25.
Next, MLHP: at most 0.25.
Consider YHTR, for which the enrichment ratio was at most 0.25.
Under EAGI stands at most 0.25; under RSMN, at most 0.25; under TEFW, at most 0.25.
Under RGCA stands at most 0.25; under LWCL, at most 0.25; under FREV, at most 0.25.
Turning to KTDY, the enrichment ratio is at most 0.25.
Under HAKC stands at most 0.25; under TCRL, 4.94; under RRGW, at most 0.25.
Next, DKMY: at most 0.25; PLRT: at most 0.25; PCAQ: at most 0.25.
Next, TVAK: 9.5; WDWD: at most 0.25; SCGA: 7.34.
In the case of EYKC, the enrichment ratio is at most 0.25.
For the variant LGIK, the enrichment ratio is at most 0.25.
Consider RSMS, for which the enrichment ratio is at most 0.25.
For GRRV, the enrichment ratio is at most 0.25.
As for DYCP, the enrichment ratio is at most 0.25.
As for YILL, the enrichment ratio came out at 4.71.
Next, VILD: at most 0.25; HRIW: at most 0.25; TWDM: at most 0.25.
Under PCHI stands at most 0.25.
For the variant NDVN, the enrichment ratio is at most 0.25.
Under FASE stands at most 0.25; under FVKD, at most 0.25; under DRGP, at most 0.25.
As for IFGF, the enrichment ratio is at most 0.25.
Under RCQF stands at most 0.25.
Next, GTVN: at most 0.25; KYQD: at most 0.25; RRFF: at most 0.25.
Next, MWTW: at most 0.25; QIYK: at most 0.25.
In the case of PLMP, the enrichment ratio was at most 0.25.
On to WYRM, for which the enrichment ratio is at most 0.25.
Under SPDT stands at most 0.25; under DNHW, at most 0.25.
In the case of AGWK, the enrichment ratio was at most 0.25.
On to EVQQ, for which the enrichment ratio is at most 0.25.
Regarding PHET, the enrichment ratio was at most 0.25.
On to FAFY, for which the enrichment ratio was at most 0.25.
Next, RLYM: at most 0.25; PCRT: at most 0.25.
Under AKKH stands at most 0.25; under HRPP, at most 0.25; under SCFV, at most 0.25.
Under MGPS stands at most 0.25; under VGSV, 2.7.
As for RAQV, the enrichment ratio was at most 0.25.
Regarding SCFP, the enrichment ratio was at most 0.25.
For the variant THNG, the enrichment ratio was 4.5.
Under IKSN stands at most 0.25; under ESLV, at most 0.25; under WKLN, at most 0.25.
Under RKDM stands at most 0.25.
With HGWV, the enrichment ratio was at most 0.25.
Next, TDPL: at most 0.25; LWAE: at most 0.25; HTNR: at most 0.25.
For the variant LYYQ, the enrichment ratio was at most 0.25.
Next, TAFN: 1.93; MRKM: at most 0.25; HHCQ: at most 0.25.
With FTNG, the enrichment ratio is at most 0.25.
Consider KEHF, for which the enrichment ratio is at most 0.25.
Under MMGV stands at most 0.25.
With RYMG, the enrichment ratio is at most 0.25.
Next, GEWP: at most 0.25; AQGL: 0.616; ICWD: at most 0.25.
Next, FTRP: at most 0.25; YAQH: at most 0.25.
Under IIQH stands at most 0.25; under MYYA, at most 0.25; under LSNM, at most 0.25.
For the variant RFMH, the enrichment ratio is at most 0.25.
With RRFQ, the enrichment ratio is at most 0.25.
Next, GMLW: at most 0.25.
In the case of TGDP, the enrichment ratio is at most 0.25.
On to HREW, for which the enrichment ratio was at most 0.25.
Under ISAI stands at most 0.25; under GTMH, at most 0.25.
Next, VCYR: at most 0.25.
For the variant IRCK, the enrichment ratio is at most 0.25.
Under YTVK stands at most 0.25.
Under RSDD stands at most 0.25; under PQHY, at most 0.25; under LFHF, at most 0.25.
As for TAIE, the enrichment ratio is at most 0.25.
With VYRA, the enrichment ratio was at most 0.25.
Under LFRY stands at most 0.25; under VWES, at most 0.25.
For the variant NKGV, the enrichment ratio was at most 0.25.
Next, NRCN: at most 0.25; IKPI: 3.95; KHHL: at most 0.25.
Take KFNA: the enrichment ratio is at most 0.25.
Next, ESCE: at most 0.25; SLKN: at most 0.25; YYFR: at most 0.25.
Next, KFVL: at most 0.25.
